First the molecules themselves.
B1: glmS ribozyme (parent)
chain: AUAAAAGCGCCAGAACUACAGAAAUGUAGUUGACGAGGAGGAGGUUUAUCGAAUUUUCGGCGGAUGCCUCCAAA

Variants at the background level are over-represented here. Bounds are passed on as bounds.

What all share (settings): with glucosamine-6-phosphate
Variants of B1 are the subject of data set [1]. Briefly: self-cleavage kobs at 640 uM GlcN6P; higher = faster cleavage; RNA array. A digest of the protocol:
(§1)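 Tracking of barcoded ribozyme variants used a hybridised Cy3 probe at 37 °C, after in situ transcription by E. coli RNA polymerase on sequenced MiSeq chips. The flowed solution held 40 μM to 10 mM glucosamine-6-phosphate in HEPES/KCl/Mg(OAc)2 buffer, and imaging ran over ~14 h. kobs was taken from exponential decay fits of normalised per-tile medians, and kcat and KM from weighted Michaelis–Menten fits.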

The variants in data set [2] derive from B1. Put plainly: self-cleavage kobs at 2500 uM GlcN6P; higher = faster cleavage; RNA array. A digest of the protocol: as §1
The variants in data set [3] derive from B1. Briefly: self-cleavage kobs at 10000 uM GlcN6P; higher = faster cleavage; RNA array. A digest of the protocol: as §1
In data set [4] the parent is B1. Put plainly: self-cleavage kobs at 160 uM GlcN6P; higher = faster cleavage; RNA array. A digest of the protocol:
as §1

Data on 21 variants can be found in the supplement of paper PMC7125110.

As to AUAAAAGCGCCAGAACUACAGAAAUGUAGUUGUCGAGGAGGGGGUUUAUCGAAUUUUCGGCGGAUGCAUCCAAA, the “self-cleavage kobs at 640 uM GlcN6P” value in the data set with glucosamine-6-phosphate [1] was less than 1e-05 s⁻¹. Besides, in the data set with glucosamine-6-phosphate [2], the “self-cleavage kobs at 2500 uM GlcN6P” value is less than 1e-05 s⁻¹.
Turning to AUAAAAGCGCCAGAACUACAGAAAUGUAGUUGGCGAGGAGCAGGUUUAUCGAAUUUUCGGCGUAUGCCUCCAAA, the “self-cleavage kobs at 640 uM GlcN6P” value with glucosamine-6-phosphate [1] is less than 1e-05 s⁻¹. The “self-cleavage kobs at 10000 uM GlcN6P” value in the data set with glucosamine-6-phosphate [3] was less than 1e-05 s⁻¹.
Consider AUAAAAGCGCCAGAACUACAGAAAUGUAGUUGGCGAGGAGGAGGUUUAUCGAAUUUUCGCCGGAUGCGUCCAAA, for which the “self-cleavage kobs at 640 uM GlcN6P” value with glucosamine-6-phosphate [1] is less than 1e-05 s⁻¹.
On the same count and under the same terms, under AUAAAAGCGCCAGAACUACAGAAAUGUAGUUGGCGAAGAGGAGGUUUAUCGAGUUUUCGGCGGAUGCCUCCAAA stands less than 1e-05 s⁻¹.
Take AUAAAAGCGCCAGAACUACAGAAAUGUAGUUGGCGAGGAAGAGGUUUAUCGAAUUUUCGGCGGAUGCCUUCAAA: the “self-cleavage kobs at 640 uM GlcN6P” value with glucosamine-6-phosphate [1] is less than 1e-05 s⁻¹. Also, the “self-cleavage kobs at 2500 uM GlcN6P” value with glucosamine-6-phosphate [2] was less than 1e-05 s⁻¹.
With AUAAAAGCGCCAGAACUACAGAAAUGUAGUUGGCGAGGAGAAGGUUUAUCGAAUUUUCGGCGGAUGCCUACAAA, in the data set with glucosamine-6-phosphate [1], the “self-cleavage kobs at 640 uM GlcN6P” value is less than 1e-05 s⁻¹. The “self-cleavage kobs at 160 uM GlcN6P” value in the data set with glucosamine-6-phosphate [4] was less than 1e-05 s⁻¹.
As to AUAAAAGCGCCAGAACUACAGAAAUGUAGUUGUCGAGUAGGAGGUUUAUCGAAUUUUCGGCGUAUGCCUCCAAA, the “self-cleavage kobs at 640 uM GlcN6P” value in the data set with glucosamine-6-phosphate [1] was less than 1e-05 s⁻¹. Moreover, in the data set with glucosamine-6-phosphate [4], the “self-cleavage kobs at 160 uM GlcN6P” value was less than 1e-05 s⁻¹. The “self-cleavage kobs at 2500 uM GlcN6P” value with glucosamine-6-phosphate [2] is less than 1e-05 s⁻¹.
Turning to AUAAAAGCGCCAGAACUACAGAAAUGUAGUUGGCGAGGAGGCGGUUUAUCGAGUUUUCGGCGGAUGCCUCCAAA, the “self-cleavage kobs at 640 uM GlcN6P” value with glucosamine-6-phosphate [1] was less than 1e-05 s⁻¹. Besides, in the data set with glucosamine-6-phosphate [4], the “self-cleavage kobs at 160 uM GlcN6P” value is less than 1e-05 s⁻¹. In addition, the “self-cleavage kobs at 2500 uM GlcN6P” value in the data set with glucosamine-6-phosphate [2] was less than 1e-05 s⁻¹.
In the case of AUAAAAGCGCCAGAACUACAGAAAUGUAGUUGGCGAGGAGGAGGUUUAUCGGAGUUUCGGCGGAUGCCUCCAAA, the “self-cleavage kobs at 640 uM GlcN6P” value with glucosamine-6-phosphate [1] was less than 1e-05 s⁻¹.
On to AUAAAAGCGCCAGAACUACAGAAAUGUAGUUGUCGAGGAGGUGUUUUAUCGGAUUCUCGGCGGAUGCCUCCAAA, for which the “self-cleavage kobs at 640 uM GlcN6P” value in the data set with glucosamine-6-phosphate [1] is less than 1e-05 s⁻¹. Also, the “self-cleavage kobs at 160 uM GlcN6P” value in the data set with glucosamine-6-phosphate [4] was less than 1e-05 s⁻¹. In the data set with glucosamine-6-phosphate [2], the “self-cleavage kobs at 2500 uM GlcN6P” value is less than 1e-05 s⁻¹.
With AUAAAAGCGCCAGAACUACAGAAAUGUAGUUGCCGAGGAGGAGGUUUAUCGAAUUUUCGGCGGAAGCCUCCAAA, in the data set with glucosamine-6-phosphate [1], the “self-cleavage kobs at 640 uM GlcN6P” value is less than 1e-05 s⁻¹.
On the same count and under the same terms, under AUAAAAGCGCCAGAACUACAGAAAUGUAGUUGUCGAGGAGGAGGUUUGUCGAUUUUUCGGCGGAUGCCUCCAAA stands less than 1e-05 s⁻¹.
Take AUAAAAGCGCCAGAACUACAGAAAUGUAGUUGCCGAGGAGGAGGCUAGUCGAAUUUUCGGCGGAUGCCUCCAAA: the “self-cleavage kobs at 640 uM GlcN6P” value with glucosamine-6-phosphate [1] is less than 1e-05 s⁻¹.
The same measure, in the same setting: under AUAAAAGCGCCAGAACUACAGAAAUGUAGUUGGCGAGCAGGCGGUUUAUCGUAUUUUCGGCGGAUGCCUGCAAA stands less than 1e-05 s⁻¹; under AUAAAAGCGCCAGAACUACAGAAAUGUAGUUGCCGAGGAGGAGAUUUAUAGAAUUUUCGGCGGAUGUCUCCAAA, less than 1e-05 s⁻¹.
In the case of AUAAAAGCGCCAGAACUACAGAAAUGUAGUUGGCGAGGAAGAGGUUUAUCGAAUUUUCGGCGGAUGACUCCAAA, the “self-cleavage kobs at 640 uM GlcN6P” value in the data set with glucosamine-6-phosphate [1] was less than 1e-05 s⁻¹. The “self-cleavage kobs at 2500 uM GlcN6P” value in the data set with glucosamine-6-phosphate [2] is less than 1e-05 s⁻¹.
On to AUAAAAGCGCCAGAACUACAGAAAUGUAGUUGUCGAGGAGGAGGUUUAUUGAAUUUUCAGCGGAUGCCUCCAAA, for which, in the data set with glucosamine-6-phosphate [1], the “self-cleavage kobs at 640 uM GlcN6P” value is less than 1e-05 s⁻¹. For the same variant, the “self-cleavage kobs at 2500 uM GlcN6P” value with glucosamine-6-phosphate [2] is less than 1e-05 s⁻¹.
On to AUAAAAGCGCCAGAACUACAGAAAUGUAGUUGGCGAGGAGGAGGUUUAUCGAUGUAUCGUCGGAUGCCUCCAAA, for which the “self-cleavage kobs at 640 uM GlcN6P” value with glucosamine-6-phosphate [1] is less than 1e-05 s⁻¹. Also, the “self-cleavage kobs at 10000 uM GlcN6P” value with glucosamine-6-phosphate [3] was less than 1e-05 s⁻¹.
Consider AUAAAAGCGCCAGAACUACAGAAAUGUAGUUGGCGAGGAGGAGGUUUAUCGAAUUUUCGGCGGAUGGCCUCAAA, for which the “self-cleavage kobs at 640 uM GlcN6P” value with glucosamine-6-phosphate [1] is less than 1e-05 s⁻¹.
Turning to AUAAAAGCGCCAGAACUACAGAAAUGUAGUUGCCGAGGAGGAGGUUUAUCGAAUUUUCGGCGUAUGUCUGCAAA, in the data set with glucosamine-6-phosphate [1], the “self-cleavage kobs at 640 uM GlcN6P” value is less than 1e-05 s⁻¹. In addition, the “self-cleavage kobs at 10000 uM GlcN6P” value with glucosamine-6-phosphate [3] is less than 1e-05 s⁻¹.
As to AUAAAAGCGCCAGAACUACAGAAAUGUAGUUGUCGAUGAGGAGGAUUAUCGAAUGUUCGGCGGAUCCCUCCAAA, the “self-cleavage kobs at 640 uM GlcN6P” value with glucosamine-6-phosphate [1] was less than 1e-05 s⁻¹. Further, in the data set with glucosamine-6-phosphate [2], the “self-cleavage kobs at 2500 uM GlcN6P” value is less than 1e-05 s⁻¹.
